This is one part of the list.
How the values were obtained:
Assay in all cases: glycan array binding signal (z-score within array); higher = stronger binding
Details in all cases: glycan notation: IUPAC condensed, linker removed; mutation: E41A
[1] = molecular target: Neu5Ac(a2-3)Gal6S(b1-4)[Fuc(a1-3)]GlcNAc
In short: (§1)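 Glycan array binding is given as a within-array Z-score, which can be read as non-binding when negative. The arrays, 3228 of them, came from the Consortium for Functional Glycomics database and were retained only where the protein sequence was available. Z-scores were averaged across arrays of the same protein sequence at different concentrations or buffers and across linkers.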

[2] = molecular target: Neu5Ac(a2-3)GalNAc
In short: as §1

[3] = molecular target: Neu5Ac(a2-3)GalNAc(b1-4)GlcNAc
In short: as §1

[4] = molecular target: Neu5Ac(a2-3)[GalNAc(b1-4)]Gal(b1-4)Glc
In short: as §1

[5] = molecular target: Neu5Ac(a2-3)[GalNAc(b1-4)]Gal(b1-4)GlcNAc
In short: as §1

[6] = molecular target: Neu5Ac(a2-3)[GalNAc(b1-4)]Gal(b1-4)GlcNAc(b1-3)GalNAc
In short: as §1

[7] = molecular target: Neu5Ac(a2-3)[Neu5Ac(a2-6)]GalNAc
In short: as §1

[8] = molecular target: Neu5Ac(a2-6)Gal
In short: as §1

[9] = molecular target: Neu5Ac(a2-6)Gal(b1-3)GlcNAc(b1-3)[Gal(b1-4)GlcNAc(b1-6)]Gal(b1-4)Glc
In short: as §1

[10] = molecular target: Neu5Ac(a2-6)Gal(b1-4)Glc
In short: as §1

[11] = molecular target: Neu5Ac(a2-6)Gal(b1-4)GlcNAc
In short: as §1

[12] = molecular target: Neu5Ac(a2-6)Gal(b1-4)GlcNAc(b1-2)Man
In short: as §1

[13] = molecular target: Neu5Ac(a2-6)Gal(b1-4)GlcNAc(b1-2)Man(a1-3)Man(b1-4)GlcNAc(b1-4)GlcNAc
In short: as §1

[14] = molecular target: Neu5Ac(a2-6)Gal(b1-4)GlcNAc(b1-2)Man(a1-3)[Gal(b1-4)GlcNAc(b1-2)Man(a1-6)]Man(b1-4)GlcNAc(b1-4)GlcNAc
In short: as §1

[15] = molecular target: Neu5Ac(a2-6)Gal(b1-4)GlcNAc(b1-2)Man(a1-3)[GlcNAc(b1-4)][Neu5Ac(a2-6)Gal(b1-4)GlcNAc(b1-2)Man(a1-6)]Man(b1-4)GlcNAc(b1-4)GlcNAc
In short: as §1

[16] = molecular target: Neu5Ac(a2-6)Gal(b1-4)GlcNAc(b1-2)Man(a1-3)[Man(a1-6)]Man(b1-4)GlcNAc(b1-4)GlcNAc
In short: as §1

[17] = molecular target: Neu5Ac(a2-6)Gal(b1-4)GlcNAc(b1-2)Man(a1-3)[Neu5Ac(a2-3)Gal(b1-4)GlcNAc(b1-2)Man(a1-6)]Man(b1-4)GlcNAc(b1-4)GlcNAc
In short: as §1

[18] = molecular target: Neu5Ac(a2-6)Gal(b1-4)GlcNAc(b1-2)Man(a1-3)[Neu5Ac(a2-6)Gal(b1-4)GlcNAc(b1-2)Man(a1-6)]Man(b1-4)GlcNAc(b1-4)GlcNAc
In short: as §1

[19] = molecular target: Neu5Ac(a2-6)Gal(b1-4)GlcNAc(b1-2)Man(a1-3)[Neu5Ac(a2-6)Gal(b1-4)GlcNAc(b1-2)Man(a1-6)]Man(b1-4)GlcNAc(b1-4)[Fuc(a1-6)]GlcNAc
In short: as §1

[20] = molecular target: Neu5Ac(a2-6)Gal(b1-4)GlcNAc(b1-2)Man(a1-6)Man(b1-4)GlcNAc(b1-4)GlcNAc
In short: as §1

[21] = molecular target: Neu5Ac(a2-6)Gal(b1-4)GlcNAc(b1-2)Man(a1-6)[Gal(b1-4)GlcNAc(b1-2)Man(a1-3)]Man(b1-4)GlcNAc(b1-4)GlcNAc
In short: as §1

[22] = molecular target: Neu5Ac(a2-6)Gal(b1-4)GlcNAc(b1-2)Man(a1-6)[GlcNAc(b1-2)Man(a1-3)]Man(b1-4)GlcNAc(b1-4)GlcNAc
In short: as §1

[23] = molecular target: Neu5Ac(a2-6)Gal(b1-4)GlcNAc(b1-2)Man(a1-6)[Man(a1-3)]Man(b1-4)GlcNAc(b1-4)GlcNAc
In short: as §1

[24] = molecular target: Neu5Ac(a2-6)Gal(b1-4)GlcNAc(b1-2)[Neu5Ac(a2-6)Gal(b1-4)GlcNAc(b1-4)]Man(a1-3)[GlcNAc(b1-4)][Neu5Ac(a2-6)Gal(b1-4)GlcNAc(b1-2)[Neu5Ac(a2-6)Gal(b1-4)GlcNAc(b1-6)]Man(a1-6)]Man(b1-4)GlcNAc(b1-4)GlcNAc
In short: as §1

[25] = molecular target: Neu5Ac(a2-6)Gal(b1-4)GlcNAc(b1-2)[Neu5Ac(a2-6)Gal(b1-4)GlcNAc(b1-4)]Man(a1-3)[GlcNAc(b1-4)][Neu5Ac(a2-6)Gal(b1-4)GlcNAc(b1-4)Man(a1-6)]Man(b1-4)GlcNAc(b1-4)GlcNAc
In short: as §1

[26] = molecular target: Neu5Ac(a2-6)Gal(b1-4)GlcNAc(b1-2)[Neu5Ac(a2-6)Gal(b1-4)GlcNAc(b1-6)]Man(a1-6)[Neu5Ac(a2-6)Gal(b1-4)GlcNAc(b1-2)Man(a1-3)][GlcNAc(b1-4)]Man(b1-4)GlcNAc(b1-4)GlcNAc
In short: as §1

[27] = molecular target: Neu5Ac(a2-6)Gal(b1-4)GlcNAc(b1-3)Gal(b1-3)GlcNAc
In short: as §1

[28] = molecular target: Neu5Ac(a2-6)Gal(b1-4)GlcNAc(b1-3)Gal(b1-4)GlcNAc
In short: as §1

[29] = molecular target: Neu5Ac(a2-6)Gal(b1-4)GlcNAc(b1-3)Gal(b1-4)GlcNAc(b1-2)Man(a1-3)[Neu5Ac(a2-6)Gal(b1-4)GlcNAc(b1-3)Gal(b1-4)GlcNAc(b1-2)Man(a1-6)]GalNAc
In short: as §1

[30] = molecular target: Neu5Ac(a2-6)Gal(b1-4)GlcNAc(b1-3)Gal(b1-4)GlcNAc(b1-3)Gal(b1-4)GlcNAc
In short: as §1

[31] = molecular target: Neu5Ac(a2-6)Gal(b1-4)GlcNAc(b1-3)Gal(b1-4)GlcNAc(b1-3)Gal(b1-4)GlcNAc(b1-2)Man(a1-3)[Neu5Ac(a2-6)Gal(b1-4)GlcNAc(b1-3)Gal(b1-4)GlcNAc(b1-3)Gal(b1-4)GlcNAc(b1-2)Man(a1-6)]GalNAc
In short: as §1

[32] = molecular target: Neu5Ac(a2-6)Gal(b1-4)GlcNAc(b1-3)Gal(b1-4)GlcNAc(b1-3)GalNAc
In short: as §1

[33] = molecular target: Neu5Ac(a2-6)Gal(b1-4)GlcNAc(b1-3)Gal(b1-4)GlcNAc(b1-3)[Neu5Ac(a2-6)Gal(b1-4)GlcNAc(b1-3)Gal(b1-4)GlcNAc(b1-6)]GalNAc
In short: as §1

[34] = molecular target: Neu5Ac(a2-6)Gal(b1-4)GlcNAc(b1-3)Gal(b1-4)GlcNAc(b1-6)[Gal(b1-3)]GalNAc
In short: as §1

[35] = molecular target: Neu5Ac(a2-6)Gal(b1-4)GlcNAc(b1-3)Gal(b1-4)[Fuc(a1-3)]GlcNAc(b1-3)Gal(b1-4)[Fuc(a1-3)]GlcNAc
In short: as §1

[36] = molecular target: Neu5Ac(a2-6)Gal(b1-4)GlcNAc(b1-3)GalNAc
In short: as §1

[37] = molecular target: Neu5Ac(a2-6)Gal(b1-4)GlcNAc(b1-3)[Neu5Ac(a2-6)Gal(b1-4)GlcNAc(b1-6)]GalNAc
In short: as §1

[38] = molecular target: Neu5Ac(a2-6)Gal(b1-4)GlcNAc(b1-6)GalNAc
In short: as §1

[39] = molecular target: Neu5Ac(a2-6)Gal(b1-4)GlcNAc(b1-6)[Gal(b1-3)GlcNAc(b1-3)]Gal(b1-4)Glc
In short: as §1

[40] = molecular target: Neu5Ac(a2-6)Gal(b1-4)GlcNAc(b1-6)[Gal(b1-3)]GalNAc
In short: as §1

[41] = molecular target: Neu5Ac(a2-6)Gal(b1-4)GlcNAc6S
In short: as §1

[42] = molecular target: Neu5Ac(a2-6)GalNAc
In short: as §1

[43] = molecular target: Neu5Ac(a2-6)GalNAc(b1-4)GlcNAc
In short: as §1

[44] = molecular target: Neu5Ac(a2-6)GalNAc(b1-4)GlcNAc6S
In short: as §1

[45] = molecular target: Neu5Ac(a2-6)GlcNAc(b1-4)GlcNAc
In short: as §1

B1: CVN-E41G (protein)
chain: MHHHHHHENLYFQSGNFSQACYNSAIQGSVLTSTCIRTNGGYNTSSIDLNSVIANVDGSLKWQGSNFIETCRNTQLAGSSELAAECKTRAQQFVSTKINLDDHIAAIDGTLKYE
With B1 the “glycan array binding signal (z-score)” value [1] was -0.235, the “glycan array binding signal (z-score)” value [2] was 0.085 and the “glycan array binding signal (z-score)” value [3] was -0.174. The “glycan array binding signal (z-score)” value [4] was -0.219, the “glycan array binding signal (z-score)” value [5] was -0.24 and the “glycan array binding signal (z-score)” value [6] was -0.192. The “glycan array binding signal (z-score)” value [7] was -0.12, the “glycan array binding signal (z-score)” value [8] was -0.235 and the “glycan array binding signal (z-score)” value [9] was -0.182. For the same binder, the “glycan array binding signal (z-score)” value [10] was -0.224, the “glycan array binding signal (z-score)” value [11] was -0.216 and the “glycan array binding signal (z-score)” value [12] was 0.177. The “glycan array binding signal (z-score)” value [13] was -0.189, the “glycan array binding signal (z-score)” value [14] was -0.165 and the “glycan array binding signal (z-score)” value [15] was -0.208. For the same binder, the “glycan array binding signal (z-score)” value [16] was -0.209, the “glycan array binding signal (z-score)” value [17] was -0.216 and the “glycan array binding signal (z-score)” value [18] was -0.146. For the same binder, the “glycan array binding signal (z-score)” value [19] was -0.196, the “glycan array binding signal (z-score)” value [20] was -0.221 and the “glycan array binding signal (z-score)” value [21] was -0.201. For the same binder, the “glycan array binding signal (z-score)” value [22] was -0.069, the “glycan array binding signal (z-score)” value [23] was -0.229 and the “glycan array binding signal (z-score)” value [24] was -0.197. For the same binder, the “glycan array binding signal (z-score)” value [25] was -0.198, the “glycan array binding signal (z-score)” value [26] was -0.176 and the “glycan array binding signal (z-score)” value [27] was -0.152. For the same binder, the “glycan array binding signal (z-score)” value [28] was -0.22, the “glycan array binding signal (z-score)” value [29] was -0.159 and the “glycan array binding signal (z-score)” value [30] was -0.211. The “glycan array binding signal (z-score)” value [31] was -0.108, the “glycan array binding signal (z-score)” value [32] was -0.2 and the “glycan array binding signal (z-score)” value [33] was 0.108. The “glycan array binding signal (z-score)” value [34] was -0.172, the “glycan array binding signal (z-score)” value [35] was 0.069 and the “glycan array binding signal (z-score)” value [36] was -0.219. The “glycan array binding signal (z-score)” value [37] was -0.21, the “glycan array binding signal (z-score)” value [38] was -0.018 and the “glycan array binding signal (z-score)” value [39] was -0.189. For the same binder, the “glycan array binding signal (z-score)” value [40] was -0.171, the “glycan array binding signal (z-score)” value [41] was -0.215 and the “glycan array binding signal (z-score)” value [42] was -0.237. For the same binder, the “glycan array binding signal (z-score)” value [43] was -0.229, the “glycan array binding signal (z-score)” value [44] was -0.144 and the “glycan array binding signal (z-score)” value [45] was -0.234.
